Results from PubChem BioAssay AID1768 (National Center for Advancing Translational Sciences (NCATS), 2009).
Several values for one entry are separate records, joined by “and”; a condition that tells them apart may be missing. Equal values may be shown once. Out of some 270,000 compounds screened, about 620 (0.23%) were called active. The inconclusive results got no clear call from the source; some entries with a clear call stand among them for comparison. Calls follow the shape of the dose curve; as a rule, active = well fitted inhibition curve with a large enough effect in the polarisation, with a control signal flat (not every such curve was filed as active); inconclusive = small, poorly fitted or top-dose-only effect, or effect the other way, or a change in a side signal; inactive = no such curve, though single readings can be large or run the other way; the % refers to the polarisation. Potencies beside an inconclusive call are fits to weak or partial responses and may not hold up. A note “side channel” means that the fit belongs to a control or component signal, not to the main read-out.

Biological target: Menin (Homo sapiens) (UniProt O00255)
UniProt O00255, sequence (O00255 whole entry, looked up): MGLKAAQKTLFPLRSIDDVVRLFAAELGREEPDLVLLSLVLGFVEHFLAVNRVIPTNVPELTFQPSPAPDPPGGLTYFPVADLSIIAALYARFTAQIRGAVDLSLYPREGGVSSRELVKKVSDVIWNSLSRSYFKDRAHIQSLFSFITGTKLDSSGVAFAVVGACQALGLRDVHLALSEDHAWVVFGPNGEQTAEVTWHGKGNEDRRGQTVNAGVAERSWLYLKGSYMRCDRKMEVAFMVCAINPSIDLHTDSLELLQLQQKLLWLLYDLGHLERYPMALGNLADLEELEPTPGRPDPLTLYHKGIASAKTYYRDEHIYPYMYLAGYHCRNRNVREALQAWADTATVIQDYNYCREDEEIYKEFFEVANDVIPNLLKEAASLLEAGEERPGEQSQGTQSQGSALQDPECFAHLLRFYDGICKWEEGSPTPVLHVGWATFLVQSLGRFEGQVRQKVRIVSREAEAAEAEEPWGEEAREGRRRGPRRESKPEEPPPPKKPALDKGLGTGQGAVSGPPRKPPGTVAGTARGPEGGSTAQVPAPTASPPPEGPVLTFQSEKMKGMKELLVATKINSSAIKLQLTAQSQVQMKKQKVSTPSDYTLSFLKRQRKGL
Assay: qHTS Assay for Inhibitors Targeting the Menin-MLL Interaction in MLL Related Leukemias: Competition With Texas Red Labeled MLL-derived Mutant Peptide; as to FP activity change, negative = inhibition: % of control where 0% means no effect
Conditions: fluorescence polarization; series mostly up to 61.6 µM; FP activity change, negative = inhibition: at the top concentration
Potency is read from the fitted curve at half-maximal effect; tags tell the direction and shape of the fitted curve or compound fluorescence and quenching.

Compound | FP activity change, negative = inhibition | Potency
Cc1cc(OC(C)C(=O)NCC(O)c2ccccc2)c2c3c(c(=O)oc2c1)CCCC3 (configuration not stated) | inactive: -8.92% | 
Oc1ccc(/C=N/NP(=S)(c2ccccc2)c2ccccc2)c(O)c1O |  | inconclusive: 39.8 µM [quencher, side channel, single point]
Cc1[nH]c2c(Cl)cccc2c(=O)c1CN1CCCCCC1 |  | inconclusive: 12.6 µM [inhibitor, partial curve]
Cc1ccc(N2CC(C(=O)Nc3nnc(SCC(=O)Nc4cc(C)on4)s3)CC2=O)cc1 (configuration not stated) |  | inconclusive: 28.2 µM [inhibitor, partial curve]
CCCCn1c(=O)c(C(=O)Nc2ccccn2)c(O)c2ccccc21 |  | inconclusive: 22.4 µM [quencher, side channel, partial curve]
O=[N+]([O-])c1ccc(-c2ccc(C=Nc3cccc4ccccc34)o2)cc1 |  | inconclusive: 17.8 µM [quencher, side channel, partial curve]
CCOc1ccc(N=C2SCCCN2C)cc1 | inactive: 13.9% | 
CC(C)[C@@]1(NC(=O)[C@@H]2C[C@@H]3c4cccc5[nH]cc(c45)C[C@H]3N(C)C2)O[C@@]2(O)[C@@H]3CCCN3C(=O)[C@H](Cc3ccccc3)N2C1=O |  | inactive
CCOc1ccc(C2C(C#N)=C(N)Oc3c2c(=O)oc2ccccc32)cc1 (configuration not stated) |  | inconclusive: 31.6 µM [quencher, side channel, single point]
COc1ccc(CCNCc2ccccc2F)cc1 |  | inconclusive: 31.6 µM [inhibitor, single point]
CCCN1CCCC(c2cccc(O)c2)C1 (configuration not stated) | inactive: 6.32% | 
CC(C)Nc1ccc(Nc2ccccc2)cc1 | inactive: -10.2% | 
Cc1cc(/C=C2\C(=O)NC(=O)N(c3cccc(Br)c3)C2=O)c(C)n1C | inactive: -16.2% | 
CCOP(=S)(OCC)OCCSCC |  | inconclusive: 17.8 µM [inhibitor, partial curve]
O=P1(Oc2ccccc2)CC=CC(COC(c2ccccc2)(c2ccccc2)c2ccccc2)O1 (configuration not stated) |  | inconclusive: 3.16 µM [fluorescent, side channel, full curve, poor fit]
Cc1cc2c(s1)NC(=O)CN=C2c1cccs1 |  | inconclusive: 39.8 µM [inhibitor, single point]
O=C(c1cc2c(s1)-c1ccccc1OC2)N1CCC2(CC1)OCCO2 |  | inconclusive: 25.1 µM [fluorescent, side channel, single point]
CCCCCCCCCCCCOCCOCCOCCOCCOCCOCCOCCOCCOCCO |  | inactive and inconclusive: 28.2 µM [fluorescent, side channel, partial curve]
CC(C)N1CCN(Cc2cccc([N+](=O)[O-])c2)CC1 | inactive: 9.01% | 

Compound | FP activity change, negative = inhibition | Potency
C=CCN1C(=O)NC(=O)/C(=C/C=C/c2ccccc2)C1=O |  | inconclusive: 17.8 µM [quencher, side channel, single point]
C=CC[n+]1c(-c2ccc(C)cc2)csc1Nc1c(C)n(C)n(-c2ccccc2)c1=O |  | inconclusive: 7.08 µM [fluorescent, side channel, partial curve]
CC/C(=C(\c1ccc(O)cc1)c1ccc(OCCN(C)C)cc1)c1ccccc1 |  | inconclusive: 10 µM [fluorescent, side channel, partial curve]
CCCCn1c(=O)c(C(=O)Nc2ccccc2F)c(O)c2ccccc21 |  | inconclusive: 35.5 µM [inhibitor, single point]
COc1cccc(N2C(=O)/C(=C/c3ccc(C)o3)C(=O)NC2=S)c1 |  | inconclusive: 39.8 µM [fluorescent, side channel, single point]
Nc1nonc1-n1nnc(C(=O)N/N=C/c2ccc3c(c2)OCO3)c1CSc1ccccc1 |  | inconclusive: 3.55 µM [quencher, side channel, single point]
CCn1c(O)c(C=Nc2ccc(S(N)(=O)=O)cc2)c(=O)[nH]c1=S |  | inconclusive: 39.8 µM [inhibitor, single point]
O=C(O)c1c(C(=O)O)c(-c2ccc(Br)cc2)n2c1CSC2 |  | inconclusive: 11.2 µM [quencher, side channel, partial curve]
COc1ccc(Cn2c(O)c(/C=N/NC(=O)c3ccccc3)c(=O)[nH]c2=O)cc1 |  | inconclusive: 28.2 µM [quencher, side channel, partial curve]
C[C@]12CC[C@H]3[C@@H](CC[C@@]45O[C@@H]4C(=O)C(C#N)C[C@]35C)[C@@H]1CC[C@@H]2O (some centres not stated) | inactive: -1.14% | 
Cc1nn(Cc2ccccc2)c(C)c1C=C1C(=O)NC(=O)NC1=O |  | inconclusive: 31.6 µM [inhibitor, single point]
COc1ccc(N2C(=O)/C(=C/c3ccco3)C(=O)NC2=S)cc1 |  | inconclusive: 7.08 µM [quencher, side channel, partial curve]
CCOc1ccc(N2C(=O)/C(=C/c3ccco3)C(=O)NC2=S)cc1 | inactive: 28.1% | 
COC(=O)c1nc(-c2ccc3c(n2)C(=O)C(N)=C(OC)C3=O)c(N)c(-c2ccc(OC)c(OC)c2O)c1C |  | inconclusive: 10 µM [quencher, side channel, partial curve]
CN(CCC#N)C(=O)Cn1nc(Cc2ccncc2)c2ccccc2c1=O |  | inconclusive: 6.31 µM [inhibitor, single point]
Cc1nc2ccc(Nc3nc4cc(S(=O)(=O)N5CCOCC5)ccc4o3)cc2s1 |  | inconclusive: 22.4 µM [quencher, side channel, partial curve]
CCCCC(=O)N/N=C/c1c(O)n(CC)c(=S)n(CC)c1=O |  | inconclusive: 35.5 µM [quencher, side channel, single point]
CCOc1cc2c(cc1OCC)-n1cccc1C(c1ccc(F)c(OC)c1)NC2 (configuration not stated) |  | inconclusive: 2.82 µM [inhibitor, single point]
Cc1cc(C)c(S(=O)(=O)NCC2CCC(C(=O)N3CCC4(CC3)OCCO4)CC2)c(C)c1 (configuration not stated) |  | inconclusive: 20 µM [fluorescent, side channel, partial curve]

Compound | FP activity change, negative = inhibition | Potency
CCOC(=O)c1c(NC(=O)c2c(N)n(CCCOC)c3nc4ccccc4nc23)sc2c1CCCC2 |  | inconclusive: 20 µM [inhibitor, partial curve]
O=C1NC(=O)N(c2ccccc2)C(=O)/C1=C/c1ccc(Sc2ccccc2)o1 |  | inconclusive: 39.8 µM [fluorescent, side channel, single point]
Cc1ccc(OP(=O)(NCc2ccccc2)Oc2ccc(C)cc2)cc1 |  | inconclusive: 17.8 µM [fluorescent, side channel, partial curve]
CN1CC(C(=O)c2ccc(Cl)cc2)C(c2ccccc2)C1 (configuration not stated) |  | inconclusive: 22.4 µM [fluorescent, side channel, partial curve]
CC1CC(C)CN(S(=O)(=O)c2ccc3c(c2)oc(=O)n3CC(=O)N(C)Cc2ccccc2)C1 (configuration not stated) |  | inconclusive: 31.6 µM [fluorescent, side channel, single point]
Cc1ccccc1N1C(=O)NC(=O)/C(=C\c2cnn(-c3ccccc3)c2)C1=O |  | inconclusive: 28.2 µM [quencher, side channel, single point]
COc1ccc(C(=O)Nc2ccccc2-c2nnn(CC(=O)Nc3ccc4c(c3)OCCO4)n2)cc1 |  | inconclusive: 2.51 µM [quencher, side channel, full curve, poor fit]
Cc1ccc(-c2cc(NC(=O)c3ccccc3)on2)cc1 |  | inconclusive: 39.8 µM [fluorescent, side channel, single point]
Cc1cc(I)ccc1Nc1c(C(=O)NOCC2CC2)cc(F)c(F)c1F |  | inconclusive: 17.8 µM [quencher, side channel, partial curve]
C[C@@H]1C[C@H]2CC[C@H](O2)[C@H](C)C(=O)O[C@@H](C)C[C@@H]2CC[C@@H](O2)[C@@H](C)C(=O)O[C@H](C)C[C@H]2CC[C@H](O2)[C@H](C)C(=O)O[C@@H](C)C[C@@H]2CC[C@@H](O2)[C@@H](C)C(=O)O1 | inactive: -23.7% | 
O=C1c2ccccc2C(=O)C1C(=O)C(c1ccccc1)c1ccccc1 |  | inconclusive: 20 µM [quencher, side channel, partial curve]
CCOCCSc1nc2c(c(-c3cccs3)c1C#N)CC/C2=C/c1cccs1 |  | inconclusive: 10 µM [quencher, side channel, partial curve]
CCC1CCCCN1CC(=O)c1ccc(OC(F)F)cc1 (configuration not stated) |  | inconclusive: 14.1 µM [inhibitor, partial curve]
CCN(CC)P(=O)(/C=C(\Cl)c1ccccc1)/C=C(\Cl)c1ccccc1 |  | inconclusive: 7.94 µM [fluorescent, side channel, partial curve]
CC(C(=O)O)c1ccc(-c2ccccc2)c(F)c1 (configuration not stated) |  | inconclusive: 25.1 µM [quencher, side channel, single point]
CN(C)c1ccc(C=C(C#N)C#N)cc1 |  | inconclusive: 39.8 µM [inhibitor, single point]
O=c1[nH]c(=O)n(-c2ccccc2F)c(O)c1/C=C1\C=Nc2ccccc21 |  | inconclusive: 39.8 µM [quencher, side channel, single point]
C=CCN1C(=O)C2(C(C(=O)OCC)=C(N)Oc3ccccc32)c2c1c1ccccc1oc2=O (configuration not stated) | inactive: -6.87% | 
Cc1cccc(N2C(=O)NC(=O)/C(=C/c3ccc([N+](=O)[O-])o3)C2=O)c1 |  | inconclusive: 15.8 µM [fluorescent, side channel, partial curve]
